In patent EP4628104A1, “ANTI-CLDN18.2 ANTIBODY-DRUG CONJUGATE, AND PHARMACEUTICAL COMPOSITION THEREOF AND USE THEREOF” (priority 2022, dated 2024):

How the values were obtained:
[1] = test system: NIH-3T3-CLDN18.1 cells; test: Non-specific killing of CLDN18.2-negative cells; format: cell-based, Mouse; conditions: up to 20 nM, 96 h; ADCs of Example 5
Experimental: To detect the non-specific killing effect of the anti-CLDN18.2 antibody-drug conjugates prepared in Example 5 on CLDN18.2-negative cells, the killing activity detection was performed using CLDN18.1-overexpressing NIH-3T3.
cDNA encoding human CLDN18.1 (SEQ ID NO: 66) was obtained by gene synthesis and then subcloned into an expression vector pcDNA3.1. The expression vector was transfected into NIH-3T3 cells according to the instructions of the Lipofectamine 2000 transfection reagent (Thermo, Cat. No. 11668019) to obtain CLDN18.1-overexpressing NIH-3T3 -CLDN18.1.
NIH-3T3-CLDN18.1 cells in the logarithmic growth phase were taken, adjusted to a cell density of 1 × 10^4 cells/mL, and added to a 96-well plate at 100 µL/well. The cells were placed in an incubator at 37 °C with 5% CO2 for adherence culture overnight. The anti-CLDN18.2 antibody-drug conjugate was prepared with a DMEM medium containing 10% FBS. Cells subjected to overnight adherence culture were taken out. […] Then, 180 µL of the solution was pipetted from each well and transferred to an opaque white plate, bubbles were removed, the chemiluminescence value was read, and the viability of the cells was calculated. Viability(%) = (Luminescence value of the experimental group)/(Luminescence value of the control group) × 100% [formula]
Data were analyzed using Graphpad Prism 5.

[2] = Aggregate verification by gel (SEC) chromatography; format: physicochemical; conditions: peak area percentage, 280 nm, ADCs prepared in Example 3
Experimental: Components of the anti-CLDN18.2 antibody-drug conjugates prepared in Example 3 were separated using a gel chromatographic column. Elution was performed using a neutral buffer containing 10% isopropanol as the mobile phase. The components were eluted sequentially in descending order according to their molecular weights. The gel chromatographic column used was an ACQUITY UPLC Protein BEH SEC Column 200Å, 1.7 µm, 4.6 × 300 mm, and the column temperature was 25 °C. The mobile phase was 50 mM phosphate buffered saline-200 mM sodium chloride-10% isopropanol at pH 7.0 (12.53 g of disodium hydrogen phosphate dodecahydrate, 2.33 g of sodium dihydrogen phosphate dihydrate, and 11.69 g of sodium chloride were weighed, about 800 mL of ultrapure water was added, and the mixture was stirred until complete dissolution; 100 mL of isopropanol was added, ultrapure water was added to bring the volume to 1000 mL, and the mixture was mixed uniformly and then filtered through a 0.22 µm filter). 20 µg of the anti-CLDN18.2 antibody conjugates were precisely taken and injected into a liquid chromatograph, and the detection was performed at the wavelength of 280 nm. The flow rate was 0.3 mL/min, and isocratic elution was performed for 15 min.
Data were processed, and the results were quantitatively analyzed using the area normalization method. The peak area percentages of the aggregate, the monomer, and the low molecular weight impurities of the anti-CLDN18.2 antibody-drug conjugates were calculated. The aggregate peak appeared before the main peak, the monomer peak was the main peak, and the low molecular weight impurity peaks appeared after the main peak. The content proportions of the monomer, the aggregate, and the low molecular weight impurities of the anti-CLDN18.2 antibody-drug conjugates are shown in Table 1. Table 1. The content proportions of the monomer, the aggregate, and the low molecular weight impurities of the anti-CLDN18.2 antibody-drug conjugates

[3] = Pharmacokinetic evaluation in rats (total antibodies, ELISA); format: in vivo; conditions: SD rats, intravenous, 10 mg/kg, Mean ± SD, ADCs of Example 3
Experimental: SD rats (160-180 g) (source: Laboratory Animal Operation Department, Shanghai Institute for Biomedical and Pharmaceutical Technologies) were randomly divided into 3 groups of 4 rats each, and were intravenously injected with 15F9-DDDXd, hz28G3-1.1-DDDXd, and hz28G3-1.1-DDDXd prepared in Example 3 at a dose of 10 mg/kg, respectively. Before and after the administration, SD rats were all not fasted and had free access to water.
About 0.2 mL of blood was collected from the jugular vein at 30 min, 2 h (± 1 min), 8 h (± 1 min), 24 h (± 5 min), 48 h (± 5 min), 4 d (± 10 min), 7 d (± 10 min), 10 d (± 10 min), 14 d (± 20 min), 21 d (± 20 min), or 28 d (± 20 min) after the administration, anticoagulated with EDTA-K2, and centrifuged at 4 °C for 10 min at 4000 rpm to separate the plasma.
An appropriate volume of the separated plasma was pipetted and diluted with a sample diluent (PBST containing 1% BSA) at a minimum dilution factor of (20-fold). For a sample that required a higher dilution, it was further diluted with a sample diluent containing 5% blank rat plasma. Then, the mixture was vortexed until it was mixed uniformly to obtain the test sample. The quantitative range of the detection method was 19.53125 ng/mL-2500 ng/mL. AffiniPure Goat Anti-Human IgG, F(ab')2 fragment specific (Jackson ImmunoResearch, 109-005-097) was diluted with the PBS buffer (pH 7.4) to a concentration of 1 µg/mL, added to a 96-well plate at 100 µL/well for coating, and incubated at 4 °C overnight. The 96-well plate was washed with PBST (PBS containing 0.5% of Tween-20). Then, the blocking buffer (PBST containing 1% of BSA) was added at 200 µL/well, and the plate was blocked at room temperature for 2-3 h. The blocking buffer was discarded. The diluted standard curve sample, the quality control sample, and the above test sample were added at 100 µL/well, and the mixture was incubated at room temperature for 2 h. After the 96-well plate was washed with PBST, Goat anti-Human Kappa Light Chain Cross-Adsorbed Secondary Antibody, HRP (Thermofisher, A18859) was added according to a volume ratio of 1:10,000, and the mixture was incubated at room temperature for 1 h. After the 96-well plate was washed with PBST, the TMB solution (Tiangen, Cat. No. PA107-01) was added at 100 µL/well, and the mixture was incubated at room temperature for 14 min in the dark. The reaction was stopped with 1 M H2SO4. The absorbance value was read using a Tecan Spark microplate reader at a wavelength of 450 nm/630 nm, and curve fitting was performed using a 4-parameter logistic fit.
Intravenous exposure of the anti-CLDN18.2 antibody-drug conjugates was evaluated by in vivo pharmacokinetics in rats and the mean pharmacokinetic parameters for total antibodies (including antibodies conjugated and unconjugated with cytotoxic drugs) in SD rats of each group were calculated, including drug peak concentration (Cmax), time to peak (Tmax), area under the concentration-time curve (AUC(0-t)), elimination half-life (t1/2), mean residence time (MRT(0-t)), and clearance (CL), as shown in Table 6 below.

B1: hz28G3-1.3-DDDXd: anti-CLDN18.2 antibody hz28G3-1.3 conjugated with compound H (MC-GGFG-DDDXd); DAR 7.4 (Example 3), 7.6 (Example 5), 7.93 (Example 16) (conjugate)
heavy: QVQLVQSGAEVKKPGASVKVSCKTSGYSFTDYLMLWVRQAHGQSLEWMGNINPYYGRTTYALKFKGRVTMTVDRSTSTVYMELSSLRSEDTAVYYCARDGYSLRNAMDYWGQGTLVTVSS[human IgG1 constant region left out here]
light: DIVMTQSPDSLAVSLGERATINCKSSQSLFNSGNQKNYLAWYQQKPGQPPKLLIYGASTRESGVPDRFSGSGSGTDFTLTISSLQAEDVAVYYCQNAHSYPYTFGQGTKVEIKRTVAAPSVFIFPPSDEQLKSGTASVVCLLNNFYPREAKVQWKVDNALQSGNSQESVTEQDSKDSTYSLSSTLTLSKADYEKHKVYACEVTHQGLSSPVTKSFNRGEC
[1]
  killing activity against NIH-3T3-CLDN18.1 cells: no killing activity
[2]
  Aggregate: 0.54%
  Low molecular weight impurities: 0.10%
  Monomer: 99.36%
[3]
  AUC(0-21d): 578 ± 14.0 µg·days/mL
  CL: 15.4 ± 0.378 mL/day/kg
  Cmax: 190 ± 8.13 µg/mL
  MRT(0-21d): 134 ± 1.27 h
  Tmax: 0.499 ± 0 h
  t1/2: 187 ± 13.9 h
